± gives the standard deviation. Over roughly 6,600 sequences, “pre-steady-state target cleavage rate” has its median near 0.07; the highest 2% begin near 0.72. The entries are a selection whose mix differs from that of the whole data set.

This test has as its system MIWI (PIWIL1) piRISC loaded with Kctd7 piRNA (30 nt). Kind of test: pre-steady-state target cleavage rate (min^-1); MIWI and MILI are mouse PIWI proteins and EfPiwi is from a freshwater sponge; tags in brackets are library labels; higher = faster piRNA-guided slicing of the target. The conditions noted are these: guide: Kctd7 piRNA 5'p-UGUUAAUCUCUCAGAGAAGGUGACAGUGAU; auxiliary factor: 500 nM mouse GTSF1. Here is the method:
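Cleave-'n-Seq: a library of target RNAs (target site embedded in constant flanks, ACAGCATTCCGCGTTAGTGATATCCG... 5' flank; DNA-blocked outside the site) at 0.1 nM was incubated with 1 nM active mouse MILI or MIWI piRISC (synthetic 5'-monophosphorylated piRNA guide) with or without 500 nM mouse GTSF1 at 33 °C for 1 min to 16 h. Uncleaved targets were sequenced and normalised to non-target controls, and the pooled three trials were fitted to a burst-and-steady-state model to give the pre-steady-state cleavage rate (min^-1; k3 is constrained to at most 1e-4). Sequence is the target site only; target names encode pairing extent (gX:gY) and contiguous / 1-mismatch / 2-mismatch / bulge geometry. Fits with R² ≤ 0 are excluded.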
In the case of UUCACUGUCUGCUUCUCUGAGAGAUUAUGA, the “pre-steady-state target cleavage rate” value was determined as 0.0359 ± 0.0076.

For UAGACUGUCACCUUCUCUGAGAGAAAAACA, the “pre-steady-state target cleavage rate” value was determined as 0.103 ± 0.019.

Take UAGUCUGACACCAUCUCUGAGAGAUUAACA: the “pre-steady-state target cleavage rate” value was 0.411 ± 0.029.

Take UACACUGUCACCAUCUCAGAGAGAUUAACA: the “pre-steady-state target cleavage rate” value is 0.119 ± 0.015.

Consider AUCACUGUCACCUUCUCUGAGACAUUAACA, for which the “pre-steady-state target cleavage rate” value came out at 0.149 ± 0.019.

As to UAGUCUGUCACCUUCCUGAGAGAUUAACA, the “pre-steady-state target cleavage rate” value came out at 0.0876 ± 0.021.

With UAGUGACAGUGGAAGAGAGAGAGUAAAACA, the “pre-steady-state target cleavage rate” value is below 0.0001.

Regarding UUCACUGUCACCUUCUCUGAGAGAUAUACA, the “pre-steady-state target cleavage rate” value stood at 0.218 ± 0.028.

As to UUCACUGUGACCUUGUCUGAGAGAUUAACA, the “pre-steady-state target cleavage rate” value came to 0.133 ± 0.021.

As to AUCACUGUCACCUUCUCUGACUCAUUAACA, the “pre-steady-state target cleavage rate” value worked out at 0.00534 ± 0.0029.

UAGUGACAGACGUUCACUGAGAGAUUAACA: the “pre-steady-state target cleavage rate” value was determined as 0.00384 ± 0.0037.

UAGUGACAGUCCUUCUCUGUGAGAUAAACA: the “pre-steady-state target cleavage rate” value turned out to be 0.00652 ± 0.0025.

Turning to UAGUGACUCACCAUUCUCUGAGAGAUUAACA, the “pre-steady-state target cleavage rate” value is 0.141 ± 0.014.

As to UAGUGAGUCUCCUUCUCUGAGAGAUUUUGA, the “pre-steady-state target cleavage rate” value is 0.0143 ± 0.0051.

In the case of UAGUCUGUCCCCUUCUCUGAGAGAUUAACA, the “pre-steady-state target cleavage rate” value was 0.597 ± 0.041.

UAGUCUGUCACCUUCUCUGAGAGAAUAUGA: the “pre-steady-state target cleavage rate” value was determined as 0.0243 ± 0.01.

With UAGUCUGUCACCUUCUCUGUGAGAUUAUGA, the “pre-steady-state target cleavage rate” value is 0.0115 ± 0.0063.

With UAGUGUGUCACCUUCUCAGAGAGAAUAACA, the “pre-steady-state target cleavage rate” value came out at 0.114 ± 0.03.

Turning to UAGUGACAGUGGAAGUCUGACACAUUAACA, the “pre-steady-state target cleavage rate” value is below 0.0001.

UAGUGAGACACCUUCUCUGACAGAUUAACA: the “pre-steady-state target cleavage rate” value turned out to be 0.191 ± 0.022.

Turning to UAGACUGUCACCUUCUCUCAGAGAUUUACA, the “pre-steady-state target cleavage rate” value is 0.0796 ± 0.011.

Take UUCACUCAGACCUUCUCUGAGAGAUUAUGA: the “pre-steady-state target cleavage rate” value is 0.0052 ± 0.0036.

As for UAGACAGUCACCUACUCUGAGAGAUUAACA, the “pre-steady-state target cleavage rate” value is 0.575 ± 0.031.

In the case of UAGUGACACACCUUCUCUGAGAGAUAUUCA, the “pre-steady-state target cleavage rate” value was 0.0426 ± 0.012.

On to UUCACUGACACCUUCUCUGUGAGAUUAACA, for which the “pre-steady-state target cleavage rate” value turned out to be 0.169 ± 0.015.

For UAGACUGUCACCUUCUCUGAGAGAUGAACA, the “pre-steady-state target cleavage rate” value stood at 0.205 ± 0.033.

Turning to UAGUGUGUCACCUUCACUGAGAGAUAUUGA, the “pre-steady-state target cleavage rate” value was found to be 0.0216 ± 0.0079.

Consider UAGUCUCUCACCUUCUCUGAGAGAUUAUCA, for which the “pre-steady-state target cleavage rate” value came to 0.059 ± 0.017.

Regarding UAGUGACACAGCUUCUCUGUGAGAUUAACA, the “pre-steady-state target cleavage rate” value amounted to 0.0274 ± 0.0044.

For the sequence UAGUCUGUCACGAUCUCUGAGAGAUUAUGA, the “pre-steady-state target cleavage rate” value was found to be 0.00666 ± 0.0043.

For AUCACUGUGAGCUUCUCUGAGAGAUUAACA, the “pre-steady-state target cleavage rate” value was 0.618 ± 0.033.

In the case of UAGACUGUCACCUUCUGUGAGAGAUAAACA, the “pre-steady-state target cleavage rate” value stood at 0.261 ± 0.022.

As for UUCACUGUCACCUUCUCUGAGAGAAUAAGA, the “pre-steady-state target cleavage rate” value worked out at 0.219 ± 0.064.

Regarding UACACUGUCUCCAUCUCUGAGAGAUUAACA, the “pre-steady-state target cleavage rate” value amounted to 0.557 ± 0.031.

Take UAGUGACACACCUUCUCUGAGAGAUUACACA: the “pre-steady-state target cleavage rate” value worked out at 0.205 ± 0.034.

On to UAGUGACUCCCUUCUCUGAGAGAUUAACA, for which the “pre-steady-state target cleavage rate” value was determined as 0.0663 ± 0.013.

As to UAGUGUGUCAGCUUCUCAGAGAGAUUAACA, the “pre-steady-state target cleavage rate” value was determined as 0.209 ± 0.014.

With AUCAGUGUCACCUUCUCUGAGAGAUAAACA, the “pre-steady-state target cleavage rate” value was 0.348 ± 0.038.

Regarding UAGUGAGUCACCUUCUCUGAGAGAUAAUGA, the “pre-steady-state target cleavage rate” value is 0.04 ± 0.014.

Regarding UAGUGACUCACGUUCUCUGAGAGAUAAACA, the “pre-steady-state target cleavage rate” value was determined as 0.119 ± 0.022.

In the case of UAGUGACACUCCUUCUCUGAGAGAUUUACA, the “pre-steady-state target cleavage rate” value turned out to be 0.104 ± 0.016.

Turning to AUCACUGUCACCUAGUCUGAGAGAUUAUGA, the “pre-steady-state target cleavage rate” value turned out to be 0.0913 ± 0.023.

On to UACACUGAGUCCUUCUCUGAGAGAUUAUGA, for which the “pre-steady-state target cleavage rate” value worked out at 0.0326 ± 0.0095.

Turning to AUCACUGUGACCUUCUCUGAGUGAUUAACA, the “pre-steady-state target cleavage rate” value was determined as 0.0276 ± 0.0046.

As to AUCACUGUCAGCUUCUGUGAGAGAUUAACA, the “pre-steady-state target cleavage rate” value was determined as 0.577 ± 0.028.

Take UAGUGAGUCACCUUCACUGAGAGAUUUUGA: the “pre-steady-state target cleavage rate” value is 0.0525 ± 0.017.

Turning to UAGUCUGUCACCAAGUCUGAGAGAUUAACA, the “pre-steady-state target cleavage rate” value was 0.112 ± 0.016.

In the case of UAGUGACAGUCCUUCUCUGAGAGAUUAAGCA, the “pre-steady-state target cleavage rate” value was 0.0248 ± 0.0054.

Consider UAGUGACACACGUUCACUGAGAGAUUAACA, for which the “pre-steady-state target cleavage rate” value was found to be 0.12 ± 0.019.

In the case of UAGACUGUCACCAUCUCAGAGAGAUUAACA, the “pre-steady-state target cleavage rate” value turned out to be 0.0694 ± 0.0084.

UAGACUGUCACCUUCUCUGAGAGUUAAACA: the “pre-steady-state target cleavage rate” value is 0.0471 ± 0.011.

UAGUGACUCACCUUCUCUGACAGAUUUACA: the “pre-steady-state target cleavage rate” value worked out at 0.0724 ± 0.013.

Turning to UUCACUGUCAGGAUCUCUGAGAGAUUAAGA, the “pre-steady-state target cleavage rate” value amounted to 0.0127 ± 0.0029.

Regarding UAGUCUGUCACCUUCUCUGAGAGAUUAACCA, the “pre-steady-state target cleavage rate” value amounted to 0.459 ± 0.02.

For the sequence UAGUGACUCACCUUCUCUGAGAGAAUAACA, the “pre-steady-state target cleavage rate” value is 0.251 ± 0.037.

Consider UUCACUGUCACCUAGUCUGAGAGAUUAAGA, for which the “pre-steady-state target cleavage rate” value amounted to 0.0716 ± 0.014.

Regarding UACUGUGUCACCUUCUCUGAGAGAUAUUGA, the “pre-steady-state target cleavage rate” value is 0.035 ± 0.0099.

Turning to AACACUGUCACCUACUCUGAGAGAUUAACA, the “pre-steady-state target cleavage rate” value came out at 0.687 ± 0.037.

In the case of UUCACUGUCACCUUCUCUGAGAGCAUUAACA, the “pre-steady-state target cleavage rate” value came out at 0.373 ± 0.029.

Turning to UAGUGACAGACCUUCUCUGAGAGAUUAGACA, the “pre-steady-state target cleavage rate” value worked out at 0.0939 ± 0.022.

For AUCACUGAGUCCUUCUCUGAGAGAUUAAGA, the “pre-steady-state target cleavage rate” value was 0.104 ± 0.021.

Take UACACUGUCACCUUCUCUGACAGAUAUUGA: the “pre-steady-state target cleavage rate” value turned out to be 0.00642 ± 0.0045.

As to UACACUGUCACCUUCUCUGAAGAGAUUAACA, the “pre-steady-state target cleavage rate” value worked out at 0.00941 ± 0.005.

Take UUCACUGUCACCUUCUCAGAGAGAUUAAGA: the “pre-steady-state target cleavage rate” value was 0.0728 ± 0.016.

Turning to UACACUGAGUCCUUCUCUGAGAGAUUUUGA, the “pre-steady-state target cleavage rate” value amounted to 0.0105 ± 0.004.

In the case of UUCACUGUCACGUUCUCUGAGACAUUAACA, the “pre-steady-state target cleavage rate” value worked out at 0.0142 ± 0.0036.

For UAGUGUGUCACCUUCUCUCAGAGAUUAUGA, the “pre-steady-state target cleavage rate” value is 0.00794 ± 0.0052.

As to UUCACUGUCACCUUCACUGAGAGAUAUUGA, the “pre-steady-state target cleavage rate” value worked out at 0.189 ± 0.05.

Regarding UACACUGUCACGUUCUCUGAGAGAUUUUGA, the “pre-steady-state target cleavage rate” value was found to be 0.00804 ± 0.004.

For the sequence UACACUGUCAACCUUCUCUGAGAGAUUAACA, the “pre-steady-state target cleavage rate” value came out at 0.193 ± 0.016.

Regarding UUCACUCUCACCUUCUCUGAGAGAAUAACA, the “pre-steady-state target cleavage rate” value worked out at 0.163 ± 0.026.

For the sequence UAGUCUCUCACCUUCUCUGAGAGAUUAACA, the “pre-steady-state target cleavage rate” value is 0.0594 ± 0.01.
